In PubChem BioAssay AID504832 (National Center for Advancing Translational Sciences (NCATS), 2011):
The whole screen tested about 310,000 compounds, of which about 18,000 (5.8%) were called active. This list was built around the results that the source calls inconclusive (neither active nor inactive); the mix of calls is not that of the screen. The call rests on the fitted dose curve; in most records, active means well fitted inhibition curve with a large enough effect; inconclusive means small, poorly fitted or top-dose-only effect, or another doubt; inactive means no such curve, though single readings can be large or run the other way. Potencies of inconclusive entries are left out as doubtful fits.

assay: Primary qHTS for delayed death inhibitors of the malarial parasite plastid, 48 hour incubation; settings: P. falciparum luciferase growth in erythrocytes; series mostly up to 28.7 µM; activity change, negative = inhibition: at the top concentration
Summary of the method: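 Luciferase-expressing parasites in RBCs, 2% Hct / 0.1% parasitemia final; RPMI 1640 + 0.5% Albumax; 37 C, 5% CO2, one generation; luminescence read-out, lower signal = inhibition.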
On the % scale 0 is the no-effect control and ±100 the full control effect; potency means the concentration at half of the fitted maximal effect; tags describe the fitted curve by direction and shape.

SMILES	Potency	activity change, negative = inhibition
COCCCNC(=O)CN(c1cc(Cl)ccc1OC)S(=O)(=O)c1ccc(C)c([N+](=O)[O-])c1	inconclusive [inhibitor, partial curve, poor fit]	
Oc1c(CN2CCOCC2)cc(COCc2ccccc2)c2cccnc12	active: 2.62 µM	
CCCSc1cc(Cl)nc(N)n1		inactive: 37%
CC(=O)Nc1ccc(NC(=O)C(C)Sc2n[nH]c(-c3ccc(C)cc3)n2)cc1 (centres undefined)		inactive: 21.4%
CCOC(=O)/C(N=Nc1c(C)n(C)n(-c2ccccc2)c1=O)=C(/O)c1ccccc1		inactive: -17.2%
Cc1cc(C)c2nc(-c3ccccn3)cc(C(=O)Nc3ccc(S(=O)(=O)Nc4cc(C)on4)cc3)c2c1	inconclusive [inhibitor, partial curve, poor fit]	
CCOC(=O)N1CCC(n2c(SCC(=O)Nc3ccccc3OC)nc3ccccc3c2=O)CC1	active: 10.4 µM	
FC(F)(F)c1cccc(NC(=S)NNC(=S)Nc2ccc(Cl)cc2)c1	inconclusive [inhibitor, single point]	
COc1ccc(Cn2c(C3CC3)nc3ccc(NC(=O)c4cccnc4)cc3c2=O)cc1	inconclusive [inhibitor, partial curve, poor fit]	
CCSC(=O)NC1CCCCC1		inactive: 2.67%
Nn1c(SCC(=O)Nc2ccc(OC(F)F)cc2)nnc1-c1ccco1		inactive: 2.77%
COc1ccc(NC(=S)N(CCN(C)C)C(C)c2ccncc2)cc1Cl (centres undefined)	inconclusive [inhibitor, partial curve]	
Cc1cc(C)cc(NC(=O)c2ccc(CNc3c(N4CCCC4)c(=O)c3=O)cc2)c1	inconclusive [inhibitor, partial curve]	
CCOc1ccc(Cn2c(C)nc([N+](=O)[O-])c2SCC(O)CCl)cc1[N+](=O)[O-] (centres undefined)	active: 10.4 µM	
Cc1onc(-c2c(Cl)cccc2Cl)c1C(=O)N1CCN(c2ccccc2F)CC1	active: 13.1 µM	
COc1ccc(-c2nc3ccccc3nc2-c2ccccc2)cc1OC	inconclusive [inhibitor, single point]	
Cc1cccc(C)c1NC(=O)COc1ccc2c(C)c(Cc3ccccc3)c(=O)oc2c1	inconclusive [inhibitor, single point]	
CCC1(c2ccccc2)NC(=O)N(CC(=O)NNC(=O)COc2ccc(Cl)cc2C)C1=O (centres undefined)	inconclusive [inhibitor, partial curve, poor fit]	
COc1ccc(-c2csc3ncnc(N4CCN(S(=O)(=O)c5ccc(Cl)s5)CC4)c23)cc1	inconclusive [inhibitor, partial curve]	
C/C(=N\Nc1ccc(C(F)(F)F)cn1)c1ccc(S(=O)(=O)NCc2ccco2)cc1		inactive: -4.17%
Cc1cnc(C(=O)Nc2ccc(C)c(S(=O)(=O)N3CCCCC3)c2)cn1	inconclusive [inhibitor, partial curve, poor fit]	
Cc1cc2nc(-c3ccc(=O)[nH]c3)n(Cc3ccccc3)c2cc1C	inconclusive [inhibitor, partial curve]	
[Cl][In]([Cl])[Cl]	active: 7.57 µM	

SMILES	Potency	activity change, negative = inhibition
CC1(C)Cc2c(c(N3CCOCC3)nc3sc(-c4ccc(C(=O)O)o4)c(N)c23)CO1	active: 11.7 µM	
NC(=O)c1nsc(C(=O)N(c2cccc(F)c2)C(C(=O)NC2CCCC2)c2ccc(O)cc2)c1N (centres undefined)	inconclusive [inhibitor, partial curve, poor fit]	
CCN(CC(=O)Nc1ccccc1C(F)(F)F)C(=O)c1oc2ccc(OC)cc2c1C	inconclusive [inhibitor, single point]	
O=C(NCc1ccc2c(c1)OCO2)c1nnc(Cc2ccc(F)cc2)o1		inactive: 17%
CCOC(=O)N1CCN(C(=O)C2CCN(S(=O)(=O)c3ccc(NC(C)=O)cc3)CC2)CC1	inconclusive [inhibitor, partial curve, poor fit]	
COCCSc1ccccc1C(=O)Nc1nccs1		inactive: -2.33%
O=C(c1nc2ncccn2n1)N1CCc2ccccc2C1	inconclusive [inhibitor, single point]	
Cc1ccc(C)c(Cn2cnc3c(cnn3C(C)(C)C)c2=O)c1	inconclusive [inhibitor, single point]	
COc1ccc(-c2cc(C(=O)N3CCCCCC3)c3ccccc3n2)cc1	active: 9.28 µM	
CCCCSc1nnc(CCC)n1N	inconclusive [inhibitor, single point]	
COc1ccc(OC)c(NC(=O)CN2C(=O)COc3ccc(S(=O)(=O)N4CCCC4)cc32)c1	inconclusive [inhibitor, partial curve, poor fit]	
CCCC1=Nc2cc(C(=O)N3CCC(C(=O)OCC)CC3)ccc2Sc2ccccc21	active: 8.28 µM	
COc1ccc(CN2CCN(C(c3ccc(F)cc3)c3ccc(F)cc3)CC2)c(OC)c1OC	active: 9.53 µM	
CCc1c(C2(O)CCCCC2)[nH]c2c(C(=O)OC)cc(Cl)cc12		inactive: 10.1%
CCN(CC)CCCNc1nc2ccccc2c2nc(-c3ccncc3)nn12	active: 6.57 µM	
CCOc1cc(N2CCOCC2)c(OCC)cc1NC(=O)CN1CCc2ccccc2C1	inconclusive [inhibitor, full curve, poor fit]	
CC(C)(C)NC(=O)C(c1ccncc1)N(C(=O)c1csnn1)c1cccc2ccccc12 (centres undefined)		inactive: -27.6%
Cc1ccc2nc(-c3ccccn3)c(Nc3ccccc3C)n2c1	inconclusive [inhibitor, single point]	
Cc1cc(C)n(-c2c(F)c(F)c(CN3CCCCC3)c(F)c2F)n1	inconclusive [inhibitor, single point]	
CCOC(=O)C1(CCOc2ccccc2)CCN(Cc2ccc(O)c(OC)c2)CC1	active: 11.7 µM	
N#CC(C#N)=C(Nc1ccccc1)c1ccccc1	inconclusive [inhibitor, partial curve, poor fit]	
CCCCN(CC)CCCNC(=O)CS(=O)(=O)Cc1nc(-c2cccc(OC)c2)oc1C	inconclusive [inhibitor, single point]	
Cc1c(C(=O)N(Cc2ccccc2)C2CCS(=O)(=O)C2)oc2ccccc12 (centres undefined)		inactive: 14.2%

SMILES	Potency	activity change, negative = inhibition
O=C(C1=C[C@H](c2ccccc2)C[C@H](OCCCCO)O1)N1CCN(Cc2ccccc2)CC1	inconclusive [inhibitor, partial curve, poor fit]	
CC(=O)N1CCN(C(=O)c2cccc(NS(=O)(=O)c3ccc(Br)cc3)c2)CC1	inconclusive [inhibitor, single point]	
Cc1ccccc1NC(NC(=O)c1cccnc1)C(Cl)(Cl)Cl (centres undefined)	inconclusive [inhibitor, single point]	
COc1ccccc1OCC(=O)NNC(=O)CCCC(=O)NNC(=O)COc1ccccc1OC	inconclusive [inhibitor, full curve, poor fit]	
Cc1nnc2sc(COc3ccccc3)nn2c1=O	inconclusive [inhibitor, partial curve]	
CC(=O)c1cccc(NC(=O)c2c(F)c(F)c(F)c(F)c2F)c1	inconclusive [inhibitor, single point]	
Cc1cc(C)c(S(=O)(=O)N2CCCOC2CNC(=O)C(=O)NCc2cccnc2)c(C)c1 (centres undefined)	inconclusive [inhibitor, partial curve]	
C/C(=N/NC(=O)c1cccc(Br)c1)C1CC2CCC1C2 (centres undefined)		inactive: 13%
CC1Cc2cc(S(=O)(=O)N3CCC(C(=O)N4CCCCC4)CC3)ccc2N1C(=O)C1CC1 (centres undefined)	inconclusive [inhibitor, partial curve]	
COc1cc(OC)c(NC(=O)c2cccc(F)c2)cc1Cl		inactive: 15%
Cc1cc(C)n(CC(O)COc2ccccc2C(=O)Nc2ccccc2)n1 (centres undefined)	active: 1.85 µM	
Cc1cc(NC(=O)C2C3C(=O)N(CC4CCCO4)C(C(=O)NCc4ccccc4)C34C=CC2(C)O4)no1 (centres undefined)		inactive: -10.4%
COc1cccc(Cl)c1NC(=O)N1CCN(c2ccnc3cc(Cl)ccc23)CC1	inconclusive [inhibitor, partial curve]	
CC(=NC1CCN(Cc2ccccc2)CC1)c1c(O)n(C)c(=O)n(C)c1=O	inconclusive [inhibitor, full curve, poor fit]	
COCCN(CC(=O)Nc1cccc(C)c1C)C(=O)c1ccc2c(c1)OCO2	inconclusive [inhibitor, full curve]	
COc1ccc(C2=NN(C(C)=O)C(c3cccs3)C2)cc1OC (centres undefined)		inactive: -5.64%
CC(C)C[C@H](NC(=O)c1[nH]cnc1C(=O)Nc1ccc(CNC(=O)OC(C)(C)C)cc1)C(=O)OCc1ccccc1	active: 11.7 µM	
CCOC(=O)c1ccc(-c2c(-c3ccccc3OC)oc3ccccc23)cc1F	inconclusive [inhibitor, single point]	
O=S(=O)(Nc1ncnc2sc3c(c12)CCC3)c1ccc(Cl)s1		inactive: 10.2%
CC(C)(C)C1CCc2[nH]c3ccccc3c(=O)c2C1 (centres undefined)	active: 0.522 µM	
CCCN(Cc1cc2ccc(C)cc2[nH]c1=O)C(=O)c1cccnc1	inconclusive [inhibitor, single point]	
COc1ccc(S(=O)(=O)N2CCOCC2)cc1NC(=O)Cc1c(Cl)cccc1Cl	inconclusive [inhibitor, partial curve, poor fit]	
O=C(NCCCCc1ccccc1)C12CN(Cc3ccccc3)CC1C(c1cccc([N+](=O)[O-])c1)=NO2 (centres undefined)	active: 4.65 µM	
